In PMC7188906 one finds binding data, which are given here for nine substances.

Sequences of proteins named here, by UniProt entry; tags and fusion partners are left off.
UniProt P25098: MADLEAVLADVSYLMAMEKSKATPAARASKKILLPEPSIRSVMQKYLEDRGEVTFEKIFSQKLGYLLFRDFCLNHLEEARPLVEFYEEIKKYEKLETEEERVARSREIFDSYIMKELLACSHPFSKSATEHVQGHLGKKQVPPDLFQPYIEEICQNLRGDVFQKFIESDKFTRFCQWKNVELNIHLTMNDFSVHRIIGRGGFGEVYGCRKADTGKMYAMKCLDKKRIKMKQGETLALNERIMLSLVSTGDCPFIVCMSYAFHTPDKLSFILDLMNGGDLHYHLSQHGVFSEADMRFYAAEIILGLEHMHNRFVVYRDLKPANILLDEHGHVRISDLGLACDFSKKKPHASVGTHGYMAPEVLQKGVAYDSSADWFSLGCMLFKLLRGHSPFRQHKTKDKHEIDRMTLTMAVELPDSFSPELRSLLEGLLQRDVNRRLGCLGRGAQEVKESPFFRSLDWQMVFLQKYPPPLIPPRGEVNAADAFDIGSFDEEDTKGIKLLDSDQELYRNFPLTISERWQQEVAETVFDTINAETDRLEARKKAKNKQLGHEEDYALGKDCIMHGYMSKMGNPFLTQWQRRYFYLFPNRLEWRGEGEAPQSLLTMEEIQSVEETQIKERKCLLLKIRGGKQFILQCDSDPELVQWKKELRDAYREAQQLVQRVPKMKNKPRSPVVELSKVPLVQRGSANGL
UniProt P35626: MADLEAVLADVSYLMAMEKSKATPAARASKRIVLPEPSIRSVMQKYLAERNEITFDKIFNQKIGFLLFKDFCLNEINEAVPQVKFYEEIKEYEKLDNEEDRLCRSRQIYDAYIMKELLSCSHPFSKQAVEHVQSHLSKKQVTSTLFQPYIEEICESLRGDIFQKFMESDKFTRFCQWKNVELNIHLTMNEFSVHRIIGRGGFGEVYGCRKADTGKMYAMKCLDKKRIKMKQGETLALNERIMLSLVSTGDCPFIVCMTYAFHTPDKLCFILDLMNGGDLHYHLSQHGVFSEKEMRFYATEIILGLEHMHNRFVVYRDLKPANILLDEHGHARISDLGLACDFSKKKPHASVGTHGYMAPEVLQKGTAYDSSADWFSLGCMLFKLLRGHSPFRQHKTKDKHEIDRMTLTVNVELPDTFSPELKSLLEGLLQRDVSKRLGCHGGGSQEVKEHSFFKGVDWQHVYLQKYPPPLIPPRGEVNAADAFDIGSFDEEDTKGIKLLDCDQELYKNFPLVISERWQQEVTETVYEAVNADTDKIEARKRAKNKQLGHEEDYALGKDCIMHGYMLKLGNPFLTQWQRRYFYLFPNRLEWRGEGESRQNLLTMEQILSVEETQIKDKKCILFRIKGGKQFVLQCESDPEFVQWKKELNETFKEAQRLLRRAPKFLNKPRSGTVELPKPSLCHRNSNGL
UniProt P34947: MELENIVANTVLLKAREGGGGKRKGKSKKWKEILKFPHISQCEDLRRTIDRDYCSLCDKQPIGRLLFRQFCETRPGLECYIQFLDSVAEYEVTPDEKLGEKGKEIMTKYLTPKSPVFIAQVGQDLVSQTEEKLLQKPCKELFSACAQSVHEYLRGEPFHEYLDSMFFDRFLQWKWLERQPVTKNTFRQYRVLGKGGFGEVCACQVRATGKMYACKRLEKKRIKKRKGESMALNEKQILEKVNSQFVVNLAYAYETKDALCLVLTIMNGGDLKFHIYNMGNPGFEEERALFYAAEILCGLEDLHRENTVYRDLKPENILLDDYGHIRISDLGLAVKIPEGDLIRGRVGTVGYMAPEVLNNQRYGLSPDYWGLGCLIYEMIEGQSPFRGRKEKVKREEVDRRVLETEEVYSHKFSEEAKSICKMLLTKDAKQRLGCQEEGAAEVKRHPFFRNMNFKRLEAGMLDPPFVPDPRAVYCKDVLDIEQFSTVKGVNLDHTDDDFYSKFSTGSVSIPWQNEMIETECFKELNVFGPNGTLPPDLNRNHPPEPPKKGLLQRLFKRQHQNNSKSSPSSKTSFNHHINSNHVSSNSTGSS
UniProt Q14344: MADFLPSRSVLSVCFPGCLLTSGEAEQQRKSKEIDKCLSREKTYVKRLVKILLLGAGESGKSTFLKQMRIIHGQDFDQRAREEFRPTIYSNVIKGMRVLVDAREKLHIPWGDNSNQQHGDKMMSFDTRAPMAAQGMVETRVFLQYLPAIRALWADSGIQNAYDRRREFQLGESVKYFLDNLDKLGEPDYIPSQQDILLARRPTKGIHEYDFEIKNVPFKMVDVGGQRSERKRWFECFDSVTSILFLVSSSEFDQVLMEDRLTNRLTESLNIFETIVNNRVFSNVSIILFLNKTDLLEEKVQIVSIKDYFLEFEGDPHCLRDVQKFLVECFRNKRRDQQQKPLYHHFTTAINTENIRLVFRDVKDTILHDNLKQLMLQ
UniProt P63096: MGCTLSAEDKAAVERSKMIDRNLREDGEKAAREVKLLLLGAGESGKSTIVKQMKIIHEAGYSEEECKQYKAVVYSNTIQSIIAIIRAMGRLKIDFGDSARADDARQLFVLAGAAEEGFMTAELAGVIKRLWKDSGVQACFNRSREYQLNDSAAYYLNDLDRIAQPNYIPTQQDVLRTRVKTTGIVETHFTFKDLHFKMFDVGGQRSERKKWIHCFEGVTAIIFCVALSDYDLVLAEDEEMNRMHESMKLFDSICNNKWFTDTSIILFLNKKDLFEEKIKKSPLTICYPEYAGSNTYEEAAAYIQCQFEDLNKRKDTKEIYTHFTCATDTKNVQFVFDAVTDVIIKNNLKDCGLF
UniProt P50148: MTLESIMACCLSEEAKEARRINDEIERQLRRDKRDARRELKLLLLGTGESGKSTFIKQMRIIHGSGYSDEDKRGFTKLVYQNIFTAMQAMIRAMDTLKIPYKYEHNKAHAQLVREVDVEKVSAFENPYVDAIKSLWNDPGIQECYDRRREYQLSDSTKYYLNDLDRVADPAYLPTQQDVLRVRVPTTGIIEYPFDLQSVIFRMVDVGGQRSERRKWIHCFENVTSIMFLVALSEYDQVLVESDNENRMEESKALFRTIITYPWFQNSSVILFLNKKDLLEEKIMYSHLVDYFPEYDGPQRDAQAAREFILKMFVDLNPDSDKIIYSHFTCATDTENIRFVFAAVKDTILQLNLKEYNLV
UniProt P63092: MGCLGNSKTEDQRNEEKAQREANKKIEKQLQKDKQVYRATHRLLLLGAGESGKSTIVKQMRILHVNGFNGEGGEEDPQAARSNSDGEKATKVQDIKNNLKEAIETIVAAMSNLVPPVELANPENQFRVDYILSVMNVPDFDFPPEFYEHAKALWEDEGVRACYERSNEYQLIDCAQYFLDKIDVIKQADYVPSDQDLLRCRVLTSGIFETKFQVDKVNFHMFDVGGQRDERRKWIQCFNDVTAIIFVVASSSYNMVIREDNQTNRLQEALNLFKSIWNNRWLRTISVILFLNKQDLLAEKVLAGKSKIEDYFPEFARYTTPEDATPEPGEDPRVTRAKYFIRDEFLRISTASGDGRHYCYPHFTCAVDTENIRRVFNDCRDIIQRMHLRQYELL
UniProt P32298: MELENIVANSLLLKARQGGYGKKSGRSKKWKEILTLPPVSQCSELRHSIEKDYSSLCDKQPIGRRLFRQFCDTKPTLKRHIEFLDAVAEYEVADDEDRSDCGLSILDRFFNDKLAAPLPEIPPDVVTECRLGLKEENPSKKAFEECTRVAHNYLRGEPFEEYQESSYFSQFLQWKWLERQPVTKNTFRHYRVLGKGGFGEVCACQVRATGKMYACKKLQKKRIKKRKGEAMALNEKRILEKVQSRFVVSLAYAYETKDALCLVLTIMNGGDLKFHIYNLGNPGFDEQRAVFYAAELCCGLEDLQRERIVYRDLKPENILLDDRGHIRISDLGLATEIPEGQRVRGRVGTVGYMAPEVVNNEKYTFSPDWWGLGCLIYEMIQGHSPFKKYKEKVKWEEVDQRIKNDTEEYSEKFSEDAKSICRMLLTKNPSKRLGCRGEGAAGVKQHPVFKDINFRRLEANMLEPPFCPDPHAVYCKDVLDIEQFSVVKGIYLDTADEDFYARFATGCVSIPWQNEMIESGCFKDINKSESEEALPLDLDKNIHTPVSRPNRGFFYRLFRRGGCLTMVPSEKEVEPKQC
UniProt P49407: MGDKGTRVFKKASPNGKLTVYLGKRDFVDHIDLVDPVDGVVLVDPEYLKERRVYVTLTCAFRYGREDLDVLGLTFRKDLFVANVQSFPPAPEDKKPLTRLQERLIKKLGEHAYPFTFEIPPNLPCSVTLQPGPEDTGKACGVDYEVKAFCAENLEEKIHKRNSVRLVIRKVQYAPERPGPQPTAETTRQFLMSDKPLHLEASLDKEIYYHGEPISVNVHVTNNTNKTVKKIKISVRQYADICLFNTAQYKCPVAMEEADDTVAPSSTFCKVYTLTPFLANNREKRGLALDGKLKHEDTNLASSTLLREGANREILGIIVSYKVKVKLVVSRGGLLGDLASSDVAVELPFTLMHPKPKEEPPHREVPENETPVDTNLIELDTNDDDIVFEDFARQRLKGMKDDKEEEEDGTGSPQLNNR

Test [1] deals with T1, human ACKR4-EYFP (human) (UniProt Q9NPB9).
T1 sequence: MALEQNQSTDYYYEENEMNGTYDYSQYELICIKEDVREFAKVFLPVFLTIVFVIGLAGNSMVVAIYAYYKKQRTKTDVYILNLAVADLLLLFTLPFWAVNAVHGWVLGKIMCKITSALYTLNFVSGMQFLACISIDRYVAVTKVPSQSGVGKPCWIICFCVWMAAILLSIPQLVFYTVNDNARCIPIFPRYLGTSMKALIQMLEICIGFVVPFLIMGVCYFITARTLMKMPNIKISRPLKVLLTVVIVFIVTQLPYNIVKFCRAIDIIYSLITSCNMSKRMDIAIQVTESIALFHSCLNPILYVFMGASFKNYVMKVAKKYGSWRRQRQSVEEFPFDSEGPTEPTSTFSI
The experiment in a line: FRET or BRET; as a1, but after stimulation of the cells with chemokine (CCL19, CCL21 or CCL25; graded concentrations, 114 nM, 352 nM, 408 nM or 1.5 μM as the legends say); NetBRET, corrected NetBRET or area under the curve; in Figure 3J-L cells pretreated 2 h with 30 μM cmpd101 or DMSO. (In BRET a luciferase serves as donor, and the signal depends on an acceptor being close.)

In test [2] the target is T2, tailless human ACKR4t-EYFP (ACKR4 1-304) (human) (UniProt Q9NPB9).
T2 sequence: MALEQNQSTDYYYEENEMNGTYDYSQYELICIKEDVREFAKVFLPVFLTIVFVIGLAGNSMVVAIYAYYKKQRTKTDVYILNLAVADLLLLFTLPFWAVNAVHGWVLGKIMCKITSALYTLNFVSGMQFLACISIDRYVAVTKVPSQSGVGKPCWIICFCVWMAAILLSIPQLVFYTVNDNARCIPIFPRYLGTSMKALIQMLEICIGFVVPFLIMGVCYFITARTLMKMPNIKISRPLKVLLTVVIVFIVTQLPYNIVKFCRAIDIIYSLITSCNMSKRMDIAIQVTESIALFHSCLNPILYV
The test is described as above.

Test [3] concerns the target T2, tailless human ACKR4t-EYFP (ACKR4 1-304) (human). Briefly: FRET or BRET; live HeLa cells co-transfected with receptor-EYFP (acceptor) and Nluc fusion (donor), DNA ratio 3:1; NetBRET at steady state, before chemokine addition; PBS with 5% glucose, 5 μM coelenterazine H; in Figure 3J-L cells pretreated 2 h with 30 μM cmpd101 or DMSO.
The target of test [4] is T1, human ACKR4-EYFP (human). The description is as above.

These are yes or no findings as the source states them, for the method shown. Binding seen in cells or lysates may run through a third protein. Some entries that bind do so weakly or less than the wild type. Tags and fused reporters may be left off the sequences shown.

For “human GRK2-Nluc (from UniProt P25098 1-689) (enzyme)”, the binding entry in test [1] is given as “binds”; in test [2], “no binding”; in test [3], “no binding”.

Turning to “human GRK3-Nluc (from UniProt P35626 1-688) (enzyme)”, the binding entry was “binds” in test [1], “no binding” in test [2] and “no binding” in test [3].

For the substance “human GRK5-Nluc (from UniProt P34947 1-590) (enzyme)”, the binding result in test [1] is given as “no binding”.

Regarding “human Gα13-Nluc (from UniProt Q14344 1-377)”, the binding result in test [1] and in test [4] was “no binding” in each case.

For the substance “human Gαi-Nluc (from UniProt P63096 1-354)”, the binding result in test [1] and in test [4] was “no binding” throughout.

In the case of “human Gαq-Nluc (from UniProt P50148 1-359)”, the binding entry in test [1] and in test [4] was “no binding” throughout.

Turning to “human Gαs-Nluc (from UniProt P63092 1-394)”, the binding result in test [1] and in test [4] was “no binding” each time.

As to “human Nluc-GRK4 (from UniProt P32298 1-578) (enzyme)”, the binding entry in test [1] was “no binding”.

Consider “human β-arrestin1-Nluc (from UniProt P49407 1-418)”, for which the binding result in test [1] and in test [4] was “binds” throughout.
